Measurements from PMC10516938, “Conformational dynamics of cohesin/Scc2 loading complex are regulated by Smc3 acetylation and ATP binding” (Nature Communications, 2023).
These are yes or no findings as the source states them, for the method shown. For part of these data: In cells and extracts the contact can be indirect. Some entries that bind do so weakly or less than the wild type.

T1: recombinant Scc1-2xStrepII (S. cerevisiae) (UniProt Q12158)
T1 sequence: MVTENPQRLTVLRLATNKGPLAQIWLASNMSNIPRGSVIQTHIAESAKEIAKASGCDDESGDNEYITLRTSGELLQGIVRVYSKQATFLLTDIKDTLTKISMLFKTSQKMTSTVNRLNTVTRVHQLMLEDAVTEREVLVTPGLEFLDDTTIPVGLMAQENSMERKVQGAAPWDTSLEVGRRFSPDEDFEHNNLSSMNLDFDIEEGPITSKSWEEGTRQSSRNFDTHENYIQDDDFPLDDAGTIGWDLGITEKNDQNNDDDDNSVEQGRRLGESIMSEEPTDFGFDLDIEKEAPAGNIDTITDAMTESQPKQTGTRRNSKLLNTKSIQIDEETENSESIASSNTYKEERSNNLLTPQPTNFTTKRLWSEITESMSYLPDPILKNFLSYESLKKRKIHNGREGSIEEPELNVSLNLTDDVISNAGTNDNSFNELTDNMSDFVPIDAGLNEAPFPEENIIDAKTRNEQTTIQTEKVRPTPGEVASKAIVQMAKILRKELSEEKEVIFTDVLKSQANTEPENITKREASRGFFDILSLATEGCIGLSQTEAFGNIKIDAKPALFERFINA

T2: Smc3 (wild type) (S. cerevisiae) (UniProt P47037)
T2 sequence: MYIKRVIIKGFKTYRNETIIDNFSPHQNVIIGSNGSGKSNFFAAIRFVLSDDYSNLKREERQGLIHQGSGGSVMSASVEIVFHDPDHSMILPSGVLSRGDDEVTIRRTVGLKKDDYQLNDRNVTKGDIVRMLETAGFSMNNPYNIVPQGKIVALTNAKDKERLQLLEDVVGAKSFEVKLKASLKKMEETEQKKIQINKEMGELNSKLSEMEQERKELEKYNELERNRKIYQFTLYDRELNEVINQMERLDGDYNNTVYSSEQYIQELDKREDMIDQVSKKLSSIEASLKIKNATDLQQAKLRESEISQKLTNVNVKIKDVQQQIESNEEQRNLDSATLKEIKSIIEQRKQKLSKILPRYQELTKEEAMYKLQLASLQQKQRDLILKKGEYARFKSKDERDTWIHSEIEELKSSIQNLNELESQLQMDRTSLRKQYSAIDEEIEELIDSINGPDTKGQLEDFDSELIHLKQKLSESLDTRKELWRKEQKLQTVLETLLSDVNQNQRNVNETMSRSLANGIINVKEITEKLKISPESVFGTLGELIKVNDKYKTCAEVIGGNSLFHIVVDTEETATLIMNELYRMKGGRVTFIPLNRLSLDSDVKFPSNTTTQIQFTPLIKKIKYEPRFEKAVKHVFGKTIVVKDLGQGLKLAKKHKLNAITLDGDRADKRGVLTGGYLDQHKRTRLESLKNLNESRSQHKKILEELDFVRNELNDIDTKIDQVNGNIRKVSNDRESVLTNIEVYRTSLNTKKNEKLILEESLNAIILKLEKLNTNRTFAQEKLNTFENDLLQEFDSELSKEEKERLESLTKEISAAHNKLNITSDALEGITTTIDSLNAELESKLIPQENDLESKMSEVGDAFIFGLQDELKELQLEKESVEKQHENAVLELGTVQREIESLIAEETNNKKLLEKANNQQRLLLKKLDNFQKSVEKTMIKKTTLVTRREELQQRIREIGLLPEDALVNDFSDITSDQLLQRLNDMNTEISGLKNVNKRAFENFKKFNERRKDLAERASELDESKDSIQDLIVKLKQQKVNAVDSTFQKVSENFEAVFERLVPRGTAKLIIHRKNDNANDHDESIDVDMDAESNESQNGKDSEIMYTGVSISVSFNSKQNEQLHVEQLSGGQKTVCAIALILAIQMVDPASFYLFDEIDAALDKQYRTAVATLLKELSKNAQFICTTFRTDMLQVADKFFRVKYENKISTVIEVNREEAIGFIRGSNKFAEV

T3: Smc3^QQ (S. cerevisiae) (UniProt P47037)
T3 sequence: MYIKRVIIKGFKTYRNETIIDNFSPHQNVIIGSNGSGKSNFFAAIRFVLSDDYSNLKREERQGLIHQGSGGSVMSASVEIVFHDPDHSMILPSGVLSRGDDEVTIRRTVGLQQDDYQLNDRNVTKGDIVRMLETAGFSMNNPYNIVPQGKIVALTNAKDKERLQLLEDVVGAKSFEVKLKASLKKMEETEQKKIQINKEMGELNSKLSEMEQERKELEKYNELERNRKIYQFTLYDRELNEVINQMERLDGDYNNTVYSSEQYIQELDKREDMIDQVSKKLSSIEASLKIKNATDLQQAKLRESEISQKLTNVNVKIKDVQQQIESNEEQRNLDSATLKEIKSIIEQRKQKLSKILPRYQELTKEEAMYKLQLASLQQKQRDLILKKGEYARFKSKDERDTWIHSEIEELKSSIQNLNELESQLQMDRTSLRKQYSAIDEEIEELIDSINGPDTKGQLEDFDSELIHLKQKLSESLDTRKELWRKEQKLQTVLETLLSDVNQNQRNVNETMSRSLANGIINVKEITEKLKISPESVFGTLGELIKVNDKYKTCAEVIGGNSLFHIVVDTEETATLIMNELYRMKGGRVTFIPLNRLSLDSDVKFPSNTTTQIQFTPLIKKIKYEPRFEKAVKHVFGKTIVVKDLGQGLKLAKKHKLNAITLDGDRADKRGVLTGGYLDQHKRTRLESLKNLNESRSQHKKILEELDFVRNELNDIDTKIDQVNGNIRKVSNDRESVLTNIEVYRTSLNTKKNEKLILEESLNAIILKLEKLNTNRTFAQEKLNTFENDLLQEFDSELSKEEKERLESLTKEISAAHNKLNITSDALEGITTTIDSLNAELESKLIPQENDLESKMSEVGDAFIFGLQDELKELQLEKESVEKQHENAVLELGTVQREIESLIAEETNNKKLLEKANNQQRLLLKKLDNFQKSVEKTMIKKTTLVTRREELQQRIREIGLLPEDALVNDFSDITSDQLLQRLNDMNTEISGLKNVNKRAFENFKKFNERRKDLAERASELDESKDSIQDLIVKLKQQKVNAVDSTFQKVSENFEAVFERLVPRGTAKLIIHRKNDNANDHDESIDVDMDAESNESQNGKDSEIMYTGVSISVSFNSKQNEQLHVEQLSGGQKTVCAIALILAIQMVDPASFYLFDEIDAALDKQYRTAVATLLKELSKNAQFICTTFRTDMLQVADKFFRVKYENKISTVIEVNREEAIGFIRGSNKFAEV


Columns and labels:
[1] = target: T1, recombinant Scc1-2xStrepII (S. cerevisiae); experiment: co-purification (StrepTrap affinity, then size exclusion); four cohesin subunits co-expressed in Sf9; captured by 2xStrepII on Scc1, eluted with desthiobiotin, Superose 6 Increase in HNTG (25 mM Hepes pH 8.0, 150 mM NaCl)
[2] = target: T2, Smc3 (wild type) (S. cerevisiae); experiment: co-IP; co-immunoprecipitation of Scc2 with Smc3 or Smc3^QQ from exponentially grown yeast cells; lysis buffer 0.05 M Tris pH 7.5, 0.15 M NaCl, 5 mM EDTA, 0.5% NP-40
Smc3^QQ (S. cerevisiae) = target: T3, Smc3^QQ (S. cerevisiae); experiment: as above

Row | binding [1] | binding [2] | binding (Smc3^QQ (S. cerevisiae)) | Binder
1 | binds | – | – | recombinant Scc3 (protein, UniProt P40541 1-1150) MTAVRRSTRIRTKSQVIEEDYDDEQNTSAQHVESDKITAKTQHEEEEEQDTGESEESSSEDDYEDQDDDDYVDTATAKRKSRKRKPKSASNTSSKRQKKKPTSAQKSAVSHAPAYHRSKKDQDQYLEIAKDFQPTELFDILSTSEDVSIEELLREWLETYSENRDKFLQEFINLLLNCCGSVARVEDHDVHSNESSNETIGEIQLLFQRQKLHEFYLLISKENKKRKNFKMGPLYQNFAEFMTKLLEVANDLQLLYVESDEDDTQIVTGNLVLDLLTWLSSFSVCKIRCFRYISTLTLYLFQDYLTQQAVNLEKNYLAKLSKQLSLEEKKKRPNNKTLEKLESTIAETQGSKVVIDSIIDNIVKLCFVHRYKDVSDLIRSESMLHLSIWIKNYPEYFLKVTFLKYFGWLLSDNSVSVRLQVTKILPHLIIQNHNSKSTDNSAIRQVFERFKTKILEVAIRDVNLDVRIHSIQVLTEASSLGYLDDSEILIISSLMFDEEFDPFKTSSFNKRSKFLSTVAKFLARVIKEKFDEFIKTHEDLPKEVDGLEVGPVVQVGIFIKILNDSLIYHLKDCAEVDSRTKIRMLTQAAEFLSPYISTHLKTICNLLISDTESNELIQKLQNSANNNSDDEDVDDEELDITPLFPIDRNSTILYLNVFHGLCAGANNPKIQTKDSVKEIVLPLFYDLLNAASIESADILCPLLESFITFSLDDWISIGYETELKKITDKTIKAFMDSTIGNSKVDMKYDIFAKFIHHIHHFEKKELQEKFLNQIATLKIHLKKFLQEKMDPNNSRDDYKDLTCSLYELYINKLTILGRDYPIEVDEELLQLFLNNFVSRIPIMFQDFDDSTAQEINFKMLVLLATWNLEKWREIIEKVRDYENSISKDLRSVWKPIAAIIGRLNTLVISLAATNETFENINSLFYLKWSACTSLMDIIVAIKIFELKLPADATTWRYSMSEQFPFYLHDNASKVLLKIFLYLESLFAKQVDVQLERVADEDANLNDLPETGFFENIETEFLLFTVKLKGLMKLNILDERFASRVALNKEKLGPLFKKIVDDTIMENPEPNKKNIQKAKSNQTQREKAPLQPNSERETDHANTENNDPDIPMTIDLEPIEESSQNNSELAPIEEHPTVVDAIDNSDEITQD
2 | – | binds | binds | Scc2 (co-immunoprecipitation of Fig. 2E) (protein, UniProt Q04002 1-1493) MSYPGKDKNIPGRIIEALEDLPLSYLVPKDGLAALVNAPMRVSLPFDKTIFTSADDGRDVNINVLGTANSTTSSIKNEAEKERLVFKRPSNFTSSANSVDYVPTNFLEGLSPLAQSVLSTHKGLNDSINIEKKSEIVSRPEAKHKLESVTSNAGNLSFNDNSSNKKTKTSTGVTMTQANLAEQYLNDLKNILDIVGFDQNSAEIGNIEYWLQLPNKKFVLTTNCLTKLQMTIKNITDNPQLSNSIEITWLLRLLDVMVCNIKFSKSSLKMGLDDSMLRYIALLSTIVLFNIFLLGKNDSNLHRESYIMEPVNFLSDLIESLKILTIEYGSLKIEFDTFQEALELLPKYIRNGPFLDDNVTAKLVYIFSDLLMNNDIEATTNIQFQSFWDNVKRISSDILVSLFGSFDQQRGFIIEELLSHIEKLPTKRIQKKLRKVGNQNIYITDFTFTLMSMLENINCYSFCNQMKDIAPENIDLLKNEYKKQEEFLFNIVEHINDTILERFFKNPSALRYVIDNFVQDLLLLISSPQWPVTEKILSSLLKRLLSVYSPSMQVSANIETICLQLIGNIGSTIFDIKCSTRDHEDNNLIKMINYPETLPHFFKSFEECIAYNETIKCRRSATRFLWNLRLGTILILEEYTKDAKEQIITVDNELKKILEQIKDGGLGPELENREADFSTIKLDYFSILHAFELLNLYDPYLKLILSLLAKDKIKLRSTAIKCLSMLASKDKVILSNPMVKETIHRRLNDSSASVKDAILDLVSINSSYFEFYQQINNNYNDDSIMVRKHVLRINEKMYDETNDIVTKVYVIARILMKIEDEEDNIIDMARLILLNRWILKVHEVLDQPEKLKEISSSVLLVMSRVAIMNEKCSQLFDLFLNFYLLNKEAHSKEAYDKITHVLTILTDFLVQKIVELNSDDTNEKNSIVDKQNFLNLLAKFADSTVSFLTKDHITALYPYMVSDEKSDFHYYILQVFRCTFEKLANFKQKFLYDLETTLLSRLPKMNVREIDEAMPLIWSVATHRHDTARVAKACSSCLSHLHPYINKANNEEAAIVVDGKLQRLIYLSTGFARFCFPKPSNDKIAFLQEGETLYEHITKCLLVLSKDKITHVIRRVAVKNLTKLCGNHPKLFNSRHVLHLLDKEFQSDQLDIKLVILESLYDLFLLEERKSVRNTGVNSTLSSNSILKKKLLKTNRVEFANDGVCSALATRFLDNILQLCLLRDLKNSLVAIRLLKLILKFGYTNPSHSIPTVIALFASTSQYIRHVAYELLEDLFEKYETLVFSSLSRGVTKAIHYSIHTDEKYYYKHDHFLSLLEKLCGTGKKNGPKFFKVLKRIMQSYLDDITDLTSTNSSVQKSIFVLCTNISNITFVSQYDLVSLLKTIDLTTDRLKEVIMDEIGDNVSSLSVSEEKLSGIILIQLSLQDLGTYLLHLYGLRDDVLLLDIVEESELKNKQLPAKKPDISKFSAQLENIEQYSSNGKLLTYFRKHVKDT
